The text below walks through data of publication PMC6451091.

Holding throughout (settings): 20 mM HEPES pH 7.9, 100 mM NaCl, 1 mM DTT, 0.2 mg/mL BSA, 0.02% Triton X-100, 2% milk, 0.4 mg/mL salmon testes DNA; 1 h; temperature not stated; high values mean tight binding; double strand, one strand shown; sequences stand for … in GCCTAGCAC…GTGCTAGGTCTTGATTCGCTTGACGCTGCTG
One assay deals with PU.1 (IVT) (UniProt P17947). In words: protein-binding microarray (PBM).
For assay [1], the target named is PU.1 (endogenous, THP-1 nuclear extract) (UniProt P17947). The experiment in a line: nuclear extract protein-binding microarray (nextPBM).
The target of assay [2] is T1, FLI1 (endogenous, THP-1 nuclear extract) (UniProt Q01543).
T1 sequence: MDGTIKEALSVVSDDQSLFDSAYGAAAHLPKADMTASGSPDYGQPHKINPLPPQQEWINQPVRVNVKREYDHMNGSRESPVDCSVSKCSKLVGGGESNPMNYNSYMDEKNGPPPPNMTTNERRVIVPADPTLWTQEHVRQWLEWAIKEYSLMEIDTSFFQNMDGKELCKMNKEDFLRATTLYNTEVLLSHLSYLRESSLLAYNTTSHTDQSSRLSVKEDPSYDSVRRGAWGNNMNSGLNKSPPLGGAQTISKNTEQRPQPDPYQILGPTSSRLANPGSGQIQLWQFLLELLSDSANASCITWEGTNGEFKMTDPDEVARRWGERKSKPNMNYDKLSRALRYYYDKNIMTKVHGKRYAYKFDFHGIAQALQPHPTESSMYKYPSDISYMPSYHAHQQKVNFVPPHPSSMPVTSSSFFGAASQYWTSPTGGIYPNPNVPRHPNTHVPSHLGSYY
The assay is described as above.

Some of the results follow. For part of these data: At the low end of the ranking, values are background and their order means little. For part of these data: Measured with an extract: partners may take part in the binding.

In the case of GAGAAGGGGAACTGTTGTTT, the binding signal in the assay with PU.1 (IVT) turned out to be 3.62 z-score; in assay [1] it was 2.96 z-score; in assay [2], 1.29 z-score.
As for GGAAACAGGAAGTGAGAGAG, the values for the binding signal (with PU.1 (IVT); in assay [1]; in assay [2]) were 6.84 z-score, 6.91 z-score and 5.39 z-score, respectively.
In the case of GAAGGGAGGAAGTGAAACTT, the binding signal with PU.1 (IVT) was found to be 3.67 z-score; in assay [1], 5.84 z-score; in assay [2], 3.14 z-score.
On to AAAAAAAGGAACTGGCAAGA, for which the binding signal with PU.1 (IVT) was 4.43 z-score; in assay [1] it was 4.22 z-score; in assay [2] it was 1.71 z-score.
As for GAAAACCGGAAGTCCCATAG, the binding signal came out at 6.38 z-score with PU.1 (IVT), 6.75 z-score in assay [1] and 6.71 z-score in assay [2].
Turning to AGATTAAGGAAGTGAGAATC, the values for the binding signal (with PU.1 (IVT); in assay [1]; in assay [2]) were 4.98 z-score, 5.79 z-score and 2.72 z-score, respectively.
For AATAAAAGGAAGTGAACCAA, the results for the binding signal (with PU.1 (IVT); in assay [1]; in assay [2]) were 4.04 z-score, 4.06 z-score and 2.42 z-score, respectively.
On to AGAGAGGGGAAGTAAATTCT, for which the binding signal stood at 5.06 z-score with PU.1 (IVT), 4.47 z-score in assay [1] and 1.97 z-score in assay [2].
Consider AGAATGGGGAAGTGGTGAAG, for which the binding signal in the assay with PU.1 (IVT) turned out to be 6.62 z-score; in assay [1] it was 6.75 z-score; in assay [2], 2.52 z-score.
Regarding AACAAGAGGAAGTGAGAGGA, the results for the binding signal (with PU.1 (IVT); in assay [1]; in assay [2]) were 4.97 z-score, 5.31 z-score and 2.72 z-score, respectively.
On the same counts, the results for ACAGAGAGGAACTGCAGGCT are 1.95 z-score, 1.99 z-score and 0.343 z-score.
For CGAAAGGGGAAGTGATAAAC, the binding signal in the assay with PU.1 (IVT) is 6.93 z-score; in assay [1], 7.09 z-score; in assay [2], 3.38 z-score.
For ACATTGGGGAAGTGGGGAAA, the binding signal was determined as 3.69 z-score in the assay with PU.1 (IVT), 4 z-score in assay [1] and 1.53 z-score in assay [2].
For the sequence GAAAAAGGGAAGTGCAGTCA, the binding signal is 6.71 z-score in the assay with PU.1 (IVT), 6.96 z-score in assay [1] and 2.54 z-score in assay [2].
As for AGAAAGAGGAAGTCCAGTAC, the binding signal with PU.1 (IVT) came out at 7.98 z-score; in assay [1], 7.3 z-score; in assay [2] it was 4.42 z-score.
Consider AGTAAGAGGAACTGTGCTAA, for which the values for the binding signal (with PU.1 (IVT); in assay [1]; in assay [2]) were 3.63 z-score, 3.41 z-score and 1.31 z-score, respectively.
For AGAATGAGGAACTAGATGAA, the binding signal with PU.1 (IVT) stood at 6.45 z-score; in assay [1], 6.53 z-score; in assay [2], 2.31 z-score.
For AAAATGAGGAAGTGCATTGA, the binding signal in the assay with PU.1 (IVT) was 8.07 z-score; in assay [1], 7.7 z-score; in assay [2], 3.38 z-score.
For the sequence GAAAACAGGAAGTCTAGGCT, the binding signal is 6.87 z-score with PU.1 (IVT), 6.78 z-score in assay [1] and 4.48 z-score in assay [2].
In the case of AAAAAAATGAACTGGCTAGA, the values for the binding signal (with PU.1 (IVT); in assay [1]; in assay [2]) were 0.479 z-score, 0.478 z-score and -0.386 z-score, respectively.
On to TTAAAAGGGAAGTGAGAAGA, for which the binding signal is 5.16 z-score with PU.1 (IVT), 5.19 z-score in assay [1] and 2.18 z-score in assay [2].
Regarding GAAAAGAGGAACTGGGTAGT, the binding signal worked out at 7 z-score with PU.1 (IVT), 6.95 z-score in assay [1] and 3.07 z-score in assay [2].
On to GAAAACAGGAAGTGCACACG, for which the binding signal with PU.1 (IVT) came out at 7.67 z-score; in assay [1], 7.34 z-score; in assay [2], 5.16 z-score.
In the same order, the values of TAAAAGAGGAAGTAGGAATA are 8.36 z-score, 7.26 z-score and 4.1 z-score.
In the same order, the values of TGAAACAGGAAGTCTGACAG are 5.54 z-score, 6.27 z-score and 4.33 z-score.
For the sequence AAAATGAGGAAGTCACTGAG, the binding signal stood at 8.03 z-score with PU.1 (IVT), 7.32 z-score in assay [1] and 3.4 z-score in assay [2].
AAAAGAAGGAAGTGAGAAAT: the binding signal came out at 5.17 z-score with PU.1 (IVT), 5.66 z-score in assay [1] and 2.4 z-score in assay [2].
With GAAAGGAGGAAGTGGAGGGT, the binding signal with PU.1 (IVT) stood at 5.92 z-score; in assay [1], 6.16 z-score; in assay [2] it was 3.14 z-score.
On the same counts, the results for TGTAAAAGGAACTGGTGTTC are 1.7 z-score, 1.41 z-score and 0.855 z-score.
CAAGAGGGGAAGTGACAAGC: the binding signal turned out to be 4.22 z-score with PU.1 (IVT), 4.12 z-score in assay [1] and 2.11 z-score in assay [2].
Take GATAAGAGGAACTCCTCTGT: the results for the binding signal (with PU.1 (IVT); in assay [1]; in assay [2]) were 3.92 z-score, 4.01 z-score and 1.18 z-score, respectively.
In the case of CCCAAAAGGAAGTGAGATAT, the figures for the binding signal (with PU.1 (IVT); in assay [1]; in assay [2]) were 2.34 z-score, 2.42 z-score and 2.53 z-score, respectively.
On the same counts, the results for GAAATGAGGAAATACTGTGA are 4.88 z-score, 4.74 z-score and 1.8 z-score.
In the same order, the values of AAAGTAAGGAAGTGATAAAG are 2.7 z-score, 2.69 z-score and 1.81 z-score.
Consider CAAAAAGGAAAGTGGATGCT, for which the results for the binding signal (with PU.1 (IVT); in assay [1]; in assay [2]) were 0.773 z-score, 0.165 z-score and 0.841 z-score, respectively.
In the case of GAAATGAGGAACTGATTGGG, the binding signal with PU.1 (IVT) came to 6.47 z-score; in assay [1], 6.73 z-score; in assay [2], 2.55 z-score.
Turning to GAGAAGAGGAAGTCCTCTGT, the binding signal with PU.1 (IVT) was determined as 6.09 z-score; in assay [1], 6.39 z-score; in assay [2], 3.19 z-score.
Regarding CGAAAGGGCAAGTGCTAAAC, the results for the binding signal (with PU.1 (IVT); in assay [1]; in assay [2]) were -0.11 z-score, -0.28 z-score and 0.236 z-score, respectively.
As to AAATAAAGGAAGTGCTTTGG, the figures for the binding signal (with PU.1 (IVT); in assay [1]; in assay [2]) were 5.17 z-score, 5.19 z-score and 2.66 z-score, respectively.
In the case of TGAAGGAGGAAGTGCAACCA, the figures for the binding signal (with PU.1 (IVT); in assay [1]; in assay [2]) were 4.71 z-score, 5.68 z-score and 3.01 z-score, respectively.
As for AGGAAGAGGAAGTGGTTCTT, the binding signal with PU.1 (IVT) was 6.99 z-score; in assay [1], 6.76 z-score; in assay [2], 4.06 z-score.
Turning to GAAAAGGGGAAGAGGGAACT, the binding signal with PU.1 (IVT) came to 5.63 z-score; in assay [1] it was 5.77 z-score; in assay [2], 1.92 z-score.
In the same order, the values of TAAAAGAGGAAGTGGTCAGA are 8.17 z-score, 7.14 z-score and 4.4 z-score.
On the same counts, the results for GAAATCAGGAAGTGCAAGTC are 6.06 z-score, 6.62 z-score and 3.22 z-score.
On to CCAAGAGGGAAGTGGGGGAG, for which the results for the binding signal (with PU.1 (IVT); in assay [1]; in assay [2]) were 3.01 z-score, 3.39 z-score and 1.33 z-score, respectively.
With GGAATGGGGAAGTGGCATTT, the binding signal with PU.1 (IVT) is 6.73 z-score; in assay [1], 6.65 z-score; in assay [2] it was 2.68 z-score.
AGGGAAGGGAAGTGGCTGTT: the binding signal was 2.31 z-score in the assay with PU.1 (IVT), 2.95 z-score in assay [1] and 1.54 z-score in assay [2].
GAAAACAGGAAGTGCCATAG: the binding signal was 7.41 z-score in the assay with PU.1 (IVT), 7.11 z-score in assay [1] and 5.12 z-score in assay [2].
In the case of TTGAGAGGGAAGTGCACTCT, the binding signal with PU.1 (IVT) worked out at 2.92 z-score; in assay [1] it was 2.75 z-score; in assay [2], 1.09 z-score.
